# This is one part of the list.
# B1: CD83 (Homo sapiens) (protein)
# chain: MSRGLQLLLLSCAYSLAPATPEVKVACSEDVDLPCTAPWDPQVPYTVSWVKLLEGGEERMETPQEDHLRGQHYHQKGQNGSFDAPNERPYSLKIRNTTSCNSGTYRCTLQDPDGQRNLSGKVILRVTGCPAQRKEETFKKYRAETSEQKLISEEDLSRGSDDDDKAEPRGP
# Experiments:
# Assay in all cases: glycan array binding signal (z-score within array); higher = stronger binding
# Details in all cases: glycan notation: IUPAC condensed, linker removed
# [1] = target: Gal(b1-3)[Fuc(a1-4)]GlcNAc
# How it was run: (§1)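 Glycan array binding is given as a within-array Z-score, which can be read as non-binding when negative. The arrays, 3228 of them, came from the Consortium for Functional Glycomics database and were retained only where the protein sequence was available. Z-scores were averaged across arrays of the same protein sequence at different concentrations or buffers and across linkers.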
# [2] = target: Gal(b1-3)[Fuc(a1-4)]GlcNAc(b1-3)Gal(b1-3)[Fuc(a1-4)]GlcNAc
# How it was run: as §1
# [3] = target: Gal(b1-3)[Fuc(a1-4)]GlcNAc(b1-3)Gal(b1-4)GlcNAc
# How it was run: as §1
# [4] = target: Gal(b1-3)[Fuc(a1-4)]GlcNAc(b1-3)Gal(b1-4)[Fuc(a1-3)]GlcNAc
# How it was run: as §1
# [5] = target: Gal(b1-3)[GlcNAc(b1-6)]GalNAc
# How it was run: as §1
# [6] = target: Gal(b1-3)[Neu5Ac(a2-6)]GalNAc
# How it was run: as §1
# [7] = target: Gal(b1-3)[Neu5Ac(a2-6)]GlcNAc(b1-4)Gal(b1-4)Glc
# How it was run: as §1
# [8] = target: Gal(b1-3)[Neu5Ac(a2-6)]GlcNAc(b1-6)Gal(b1-4)Glc
# How it was run: as §1
# [9] = target: Gal(b1-3)[Neu5Ac(b2-6)]GalNAc
# How it was run: as §1
# [10] = target: Gal(b1-4)GalNAc(a1-3)[Fuc(a1-2)]Gal(b1-4)GlcNAc
# How it was run: as §1
# [11] = target: Gal(b1-4)GalNAc(b1-3)[Fuc(a1-2)]Gal(b1-4)GlcNAc
# How it was run: as §1
# Gal(b1-4)Glc = target: Gal(b1-4)Glc
# How it was run: as §1
# Gal(b1-4)Glc6S = target: Gal(b1-4)Glc6S
# How it was run: as §1
# Gal(b1-4)GlcNAc = target: Gal(b1-4)GlcNAc
# How it was run: as §1
# [12] = target: Gal(b1-4)GlcNAc(a1-6)Gal(b1-4)GlcNAc
# How it was run: as §1
# [13] = target: Gal(b1-4)GlcNAc(b1-2)Man(a1-3)[Gal(b1-4)GlcNAc(b1-2)Man(a1-6)]Man(b1-4)GlcNAc(b1-4)GlcNAc
# How it was run: as §1
# [14] = target: Gal(b1-4)GlcNAc(b1-3)Gal(b1-3)GlcNAc
# How it was run: as §1
# [15] = target: Gal(b1-4)GlcNAc(b1-3)Gal(b1-4)Glc
# How it was run: as §1
# [16] = target: Gal(b1-4)GlcNAc(b1-3)Gal(b1-4)GlcNAc
# How it was run: as §1
# [17] = target: Gal(b1-4)GlcNAc(b1-3)Gal(b1-4)GlcNAc(b1-3)Gal(b1-4)GlcNAc
# How it was run: as §1
# [18] = target: Gal(b1-4)GlcNAc(b1-3)Gal(b1-4)[Fuc(a1-3)]GlcNAc(b1-3)Gal(b1-4)[Fuc(a1-3)]GlcNAc
# How it was run: as §1
# [19] = target: Gal(b1-4)GlcNAc(b1-3)GalNAc
# How it was run: as §1
# [20] = target: Gal(b1-4)GlcNAc(b1-3)[Gal(b1-4)GlcNAc(b1-6)]Gal(b1-4)GlcNAc
# How it was run: as §1
# [21] = target: Gal(b1-4)GlcNAc(b1-3)[Gal(b1-4)GlcNAc(b1-6)]GalNAc
# How it was run: as §1
# [22] = target: Gal(b1-4)GlcNAc(b1-3)[GlcNAc(b1-6)]Gal(b1-4)GlcNAc
# How it was run: as §1
# [23] = target: Gal(b1-4)GlcNAc(b1-6)Gal(b1-4)GlcNAc
# How it was run: as §1
# [24] = target: Gal(b1-4)GlcNAc(b1-6)Gal(b1-4)GlcNAc(b1-6)GalNAc
# How it was run: as §1
# [25] = target: Gal(b1-4)GlcNAc(b1-6)GalNAc
# How it was run: as §1
# [26] = target: Gal(b1-4)GlcNAc(b1-6)[Gal(b1-3)]GalNAc
# How it was run: as §1
# Gal3S(b1-3)GalNAc = target: Gal3S(b1-3)GalNAc
# How it was run: as §1
# Gal3S(b1-3)GlcNAc = target: Gal3S(b1-3)GlcNAc
# How it was run: as §1
# [27] = target: Gal3S(b1-3)[Fuc(a1-4)]GlcNAc
# How it was run: as §1
# Gal3S(b1-4)Glc = target: Gal3S(b1-4)Glc
# How it was run: as §1
# Gal3S(b1-4)Glc6S = target: Gal3S(b1-4)Glc6S
# How it was run: as §1
# Gal3S(b1-4)GlcNAc = target: Gal3S(b1-4)GlcNAc
# How it was run: as §1
# Gal3S(b1-4)GlcNAc6S = target: Gal3S(b1-4)GlcNAc6S
# How it was run: as §1
# [28] = target: Gal3S(b1-4)[Fuc(a1-3)]Glc
# How it was run: as §1
binder,measurement,setting,value
B1,glycan array binding signal (z-score),[1],-0.111
same,glycan array binding signal (z-score),[2],0.148
same,glycan array binding signal (z-score),[3],-0.144
same,glycan array binding signal (z-score),[4],-0.243
same,glycan array binding signal (z-score),[5],-0.169
same,glycan array binding signal (z-score),[6],-0.337
same,glycan array binding signal (z-score),[7],0.089
same,glycan array binding signal (z-score),[8],-0.336
same,glycan array binding signal (z-score),[9],-0.341
same,glycan array binding signal (z-score),[10],-0.434
same,glycan array binding signal (z-score),[11],-0.059
same,glycan array binding signal (z-score),Gal(b1-4)Glc,-0.266
same,glycan array binding signal (z-score),Gal(b1-4)Glc6S,-0.254
same,glycan array binding signal (z-score),Gal(b1-4)GlcNAc,-0.322
same,glycan array binding signal (z-score),[12],-0.353
same,glycan array binding signal (z-score),[13],-0.408
same,glycan array binding signal (z-score),[14],-0.048
same,glycan array binding signal (z-score),[15],-0.31
same,glycan array binding signal (z-score),[16],0.647
same,glycan array binding signal (z-score),[17],-0.142
same,glycan array binding signal (z-score),[18],-0.087
same,glycan array binding signal (z-score),[19],-0.359
same,glycan array binding signal (z-score),[20],-0.335
same,glycan array binding signal (z-score),[21],-0.236
same,glycan array binding signal (z-score),[22],-0.242
same,glycan array binding signal (z-score),[23],-0.226
same,glycan array binding signal (z-score),[24],-0.298
same,glycan array binding signal (z-score),[25],-0.071
same,glycan array binding signal (z-score),[26],-0.225
same,glycan array binding signal (z-score),Gal3S(b1-3)GalNAc,-0.147
same,glycan array binding signal (z-score),Gal3S(b1-3)GlcNAc,-0.457
same,glycan array binding signal (z-score),[27],-0.208
same,glycan array binding signal (z-score),Gal3S(b1-4)Glc,-0.364
same,glycan array binding signal (z-score),Gal3S(b1-4)Glc6S,-0.082
same,glycan array binding signal (z-score),Gal3S(b1-4)GlcNAc,-0.298
same,glycan array binding signal (z-score),Gal3S(b1-4)GlcNAc6S,-0.177
same,glycan array binding signal (z-score),[28],-0.141

# Source: the supplement of paper PMC8728848
